From the BET-seq Pho4 binding data (Le et al. 2018) come the findings set out here.

The other results are listed elsewhere or left out. The energies were worked out here from pooled read counts, against the library average; single values are noisy.

This experiment concerns the target T1, Pho4 (S. cerevisiae) (UniProt P07270).
T1 sequence: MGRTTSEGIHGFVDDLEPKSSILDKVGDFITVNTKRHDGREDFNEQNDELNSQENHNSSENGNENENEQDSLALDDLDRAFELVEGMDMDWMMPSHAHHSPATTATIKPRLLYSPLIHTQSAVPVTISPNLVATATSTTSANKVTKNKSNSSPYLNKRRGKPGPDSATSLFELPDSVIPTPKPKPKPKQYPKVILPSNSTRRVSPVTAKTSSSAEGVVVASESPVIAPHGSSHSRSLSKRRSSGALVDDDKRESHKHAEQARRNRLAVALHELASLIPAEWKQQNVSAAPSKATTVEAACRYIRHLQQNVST
The experiment in a line: relative binding free energy (BET-seq); higher = weaker binding. As to conditions: reference: library average.
With GAGGTCACGTGGGAGC, the “relative binding free energy” value was determined as 0.02 kcal/mol.

As for AAGAGCACGTGTTTGT, the “relative binding free energy” value was -0.04 kcal/mol.

In the case of TGCGGCACGTGCTGGG, the “relative binding free energy” value was -0.1 kcal/mol.

Regarding ATTTTCACGTGAGATC, the “relative binding free energy” value was 0.46 kcal/mol.

With CTAGGCACGTGGCAAG, the “relative binding free energy” value is -0.09 kcal/mol.

On to TCGAGCACGTGAGTGT, for which the “relative binding free energy” value came to 0.08 kcal/mol.

Regarding TCGTTCACGTGGGGTA, the “relative binding free energy” value came to 0.26 kcal/mol.

Take GTATGCACGTGGATAA: the “relative binding free energy” value came out at 0 kcal/mol.

Take GGATTCACGTGAGATG: the “relative binding free energy” value worked out at 0.34 kcal/mol.

For TGATGCACGTGAGGCA, the “relative binding free energy” value was 0.29 kcal/mol.

As to AAAGGCACGTGCTGAG, the “relative binding free energy” value is -0.06 kcal/mol.

Regarding TTTTGCACGTGTTGGC, the “relative binding free energy” value stood at 0.17 kcal/mol.

In the case of TCGTCCACGTGTGTGT, the “relative binding free energy” value was -0.03 kcal/mol.

For CTTTACACGTGTGGGG, the “relative binding free energy” value was 0.24 kcal/mol.

Take GAGTTCACGTGTCGTT: the “relative binding free energy” value stood at 0.35 kcal/mol.

On to TGGGCCACGTGCGAGT, for which the “relative binding free energy” value was -0.07 kcal/mol.

Consider TGGCGCACGTGCAGGA, for which the “relative binding free energy” value is -0.12 kcal/mol.

Turning to AGACGCACGTGTTTTT, the “relative binding free energy” value was -0.02 kcal/mol.

Turning to TGTTGCACGTGTGTCG, the “relative binding free energy” value came out at 0.01 kcal/mol.

Take GAGTACACGTGTGGCG: the “relative binding free energy” value was found to be 0.08 kcal/mol.

For GGAAGCACGTGGTGCG, the “relative binding free energy” value is -0.18 kcal/mol.

For the sequence AGCAACACGTGAGGTG, the “relative binding free energy” value worked out at 0.28 kcal/mol.

As to TAGATCACGTGGGTCG, the “relative binding free energy” value was -0.12 kcal/mol.

GACGGCACGTGGATTG: the “relative binding free energy” value is -0.02 kcal/mol.

CGTATCACGTGGTTTA: the “relative binding free energy” value was 0.12 kcal/mol.

Regarding AGTATCACGTGGCTTA, the “relative binding free energy” value came to 0.01 kcal/mol.

Consider TAATGCACGTGTTGTC, for which the “relative binding free energy” value is -0.12 kcal/mol.

For TGGATCACGTGACAGG, the “relative binding free energy” value was determined as 0.24 kcal/mol.

Turning to ATCTTCACGTGAGGGG, the “relative binding free energy” value came out at 0.24 kcal/mol.

TAATACACGTGTAATG: the “relative binding free energy” value was 0.14 kcal/mol.

As for GCGGACACGTGTAGGG, the “relative binding free energy” value was found to be 0.14 kcal/mol.

In the case of GTTTACACGTGGATCT, the “relative binding free energy” value was 0.14 kcal/mol.

For AGTGTCACGTGGTCCT, the “relative binding free energy” value was -0.01 kcal/mol.

TCTTACACGTGAGGGG: the “relative binding free energy” value stood at 0.36 kcal/mol.

Consider GATCGCACGTGAGGTG, for which the “relative binding free energy” value was 0.29 kcal/mol.

As to GGTGGCACGTGTTTAA, the “relative binding free energy” value is -0.03 kcal/mol.

TAGGCCACGTGTTGAT: the “relative binding free energy” value was -0.19 kcal/mol.

As to AGGGGCACGTGTTTTA, the “relative binding free energy” value is -0.08 kcal/mol.

Turning to TTAGTCACGTGTTTGC, the “relative binding free energy” value was 0.06 kcal/mol.

As for GTCTACACGTGTGTTT, the “relative binding free energy” value worked out at 0.24 kcal/mol.

Regarding TTCTACACGTGGTGGC, the “relative binding free energy” value is 0.14 kcal/mol.

On to ATTCTCACGTGTCTGG, for which the “relative binding free energy” value is 0.3 kcal/mol.

As to AGTGTCACGTGCGGAG, the “relative binding free energy” value is -0.01 kcal/mol.

In the case of CGGCGCACGTGGGGAA, the “relative binding free energy” value is -0.08 kcal/mol.

Consider TTGAGCACGTGTCAGT, for which the “relative binding free energy” value is -0.11 kcal/mol.

With TGTATCACGTGGCGCT, the “relative binding free energy” value came out at 0.12 kcal/mol.

For the sequence CATGGCACGTGATGGT, the “relative binding free energy” value amounted to 0 kcal/mol.

For the sequence TTGATCACGTGAGCGG, the “relative binding free energy” value turned out to be 0.34 kcal/mol.

Regarding AGTTACACGTGATATT, the “relative binding free energy” value amounted to 0.19 kcal/mol.

Turning to AATTTCACGTGTTTTG, the “relative binding free energy” value came to 0.18 kcal/mol.

As for TGGAGCACGTGGGTTG, the “relative binding free energy” value is -0.25 kcal/mol.

Turning to AGTATCACGTGAATTG, the “relative binding free energy” value came to 0.17 kcal/mol.

In the case of GGTACCACGTGTATGT, the “relative binding free energy” value was found to be 0.14 kcal/mol.

AATGCCACGTGAGGGT: the “relative binding free energy” value was 0.06 kcal/mol.

On to TTCGGCACGTGGTTTA, for which the “relative binding free energy” value is -0.25 kcal/mol.

Consider AGGTACACGTGTAGTA, for which the “relative binding free energy” value is 0.16 kcal/mol.

On to GGTGACACGTGTGCGG, for which the “relative binding free energy” value was 0.02 kcal/mol.

For GGAAGCACGTGGGGAT, the “relative binding free energy” value was -0.2 kcal/mol.

With TGCCACACGTGGTTTG, the “relative binding free energy” value was 0.02 kcal/mol.

Regarding AGGAACACGTGTTATG, the “relative binding free energy” value is -0.05 kcal/mol.

For TTTAACACGTGTATCG, the “relative binding free energy” value came to 0.13 kcal/mol.

For the sequence TTTTTCACGTGGACTT, the “relative binding free energy” value was 0.25 kcal/mol.

Take GAGGGCACGTGTGGAG: the “relative binding free energy” value turned out to be 0.02 kcal/mol.

For ATATGCACGTGAGGTA, the “relative binding free energy” value amounted to 0.11 kcal/mol.

For ATTAGCACGTGACGGT, the “relative binding free energy” value amounted to 0.01 kcal/mol.

ATCGTCACGTGTTGAG: the “relative binding free energy” value was 0 kcal/mol.

Consider AATGTCACGTGTCGGC, for which the “relative binding free energy” value came to 0.25 kcal/mol.

As to TTAATCACGTGGTACT, the “relative binding free energy” value turned out to be 0.19 kcal/mol.

Consider TGCATCACGTGTTTTA, for which the “relative binding free energy” value was 0.33 kcal/mol.

For the sequence TCTGGCACGTGATGGA, the “relative binding free energy” value stood at 0.06 kcal/mol.

Turning to TTGACCACGTGGGGGA, the “relative binding free energy” value is -0.34 kcal/mol.

Turning to AGTATCACGTGATAAT, the “relative binding free energy” value turned out to be 0.33 kcal/mol.

For the sequence CTTTACACGTGATCGT, the “relative binding free energy” value was 0.29 kcal/mol.

With TAAATCACGTGGGTCT, the “relative binding free energy” value came to 0.03 kcal/mol.

Consider CTGCTCACGTGGTGTT, for which the “relative binding free energy” value was -0.01 kcal/mol.

Consider AGGATCACGTGTCGTG, for which the “relative binding free energy” value was 0.16 kcal/mol.

Turning to TTTTTCACGTGGACAG, the “relative binding free energy” value is 0.22 kcal/mol.

Regarding CGAAGCACGTGAGTGT, the “relative binding free energy” value stood at 0.13 kcal/mol.

GATGTCACGTGTAGGC: the “relative binding free energy” value stood at 0.27 kcal/mol.

Take GGGTTCACGTGGACAT: the “relative binding free energy” value stood at 0.18 kcal/mol.

Take GTAGTCACGTGCCTGT: the “relative binding free energy” value came to 0.21 kcal/mol.

Consider GTGTGCACGTGGTGCT, for which the “relative binding free energy” value came to 0 kcal/mol.

TATGTCACGTGGCGGC: the “relative binding free energy” value stood at 0.01 kcal/mol.

Regarding GTAATCACGTGGGTGC, the “relative binding free energy” value was found to be 0 kcal/mol.

AGCCGCACGTGGTGTT: the “relative binding free energy” value was -0.06 kcal/mol.

TTTTTCACGTGACGAG: the “relative binding free energy” value is 0.42 kcal/mol.

With GAGGGCACGTGTTGCG, the “relative binding free energy” value is -0.1 kcal/mol.

As for GGAGTCACGTGTGGCC, the “relative binding free energy” value is 0.29 kcal/mol.

Take AGTGTCACGTGATCTG: the “relative binding free energy” value was determined as 0.14 kcal/mol.

In the case of TTGTACACGTGAAAGT, the “relative binding free energy” value amounted to 0.4 kcal/mol.

Consider TTTAGCACGTGAATGG, for which the “relative binding free energy” value came out at 0.17 kcal/mol.

For AGTGGCACGTGGAATT, the “relative binding free energy” value was -0.08 kcal/mol.

As to ATATTCACGTGTTGTT, the “relative binding free energy” value was found to be 0.22 kcal/mol.

Consider GAGGGCACGTGTCGGG, for which the “relative binding free energy” value stood at 0.01 kcal/mol.

For the sequence ATATCCACGTGGTGTT, the “relative binding free energy” value is -0.07 kcal/mol.

As for GCTGTCACGTGTTTTA, the “relative binding free energy” value came out at 0.03 kcal/mol.

In the case of ATAAACACGTGGGGCG, the “relative binding free energy” value is -0.17 kcal/mol.

On to GGGAGCACGTGGCGCG, for which the “relative binding free energy” value is -0.12 kcal/mol.

Turning to AAATGCACGTGTTAGT, the “relative binding free energy” value was -0.02 kcal/mol.

GGTGACACGTGGAGAT: the “relative binding free energy” value was 0.1 kcal/mol.

Consider ATGTTCACGTGAGACG, for which the “relative binding free energy” value was determined as 0.32 kcal/mol.

Regarding GGGGGCACGTGGCGCG, the “relative binding free energy” value is -0.28 kcal/mol.

Take TGGGGCACGTGCATGG: the “relative binding free energy” value is -0.16 kcal/mol.

Take AAGGACACGTGGAGGA: the “relative binding free energy” value was determined as 0.09 kcal/mol.

Regarding TTATCCACGTGTTGTA, the “relative binding free energy” value was -0.05 kcal/mol.

As for GTAGTCACGTGGCAGA, the “relative binding free energy” value is 0.14 kcal/mol.

For the sequence CAGTTCACGTGGGTCG, the “relative binding free energy” value stood at 0.24 kcal/mol.

Take GCGGGCACGTGTAGTT: the “relative binding free energy” value stood at 0.03 kcal/mol.

For AGCGTCACGTGAGTGC, the “relative binding free energy” value was 0.29 kcal/mol.

For the sequence AATGTCACGTGTGAGT, the “relative binding free energy” value stood at 0.16 kcal/mol.

In the case of TCGATCACGTGGCGGG, the “relative binding free energy” value was 0.24 kcal/mol.

As for TGTAGCACGTGGAAAT, the “relative binding free energy” value turned out to be 0.09 kcal/mol.

As for CTGTGCACGTGAGGGA, the “relative binding free energy” value amounted to 0.25 kcal/mol.

Turning to TATCGCACGTGTGGCT, the “relative binding free energy” value came out at 0.07 kcal/mol.

Consider GTACGCACGTGGTGTT, for which the “relative binding free energy” value is -0.18 kcal/mol.
